Source: the supplement of paper PMC3334620
Whole data set: some 33,000 sequences, median “E-score (-0.5 to 0.5)” near -0.013, cut for the highest 2% near 0.3. The list shows a part of the results.

biological target: T1, Msn1 (UniProt P22148); test: PBM E-score (8-mer binding enrichment) (E-score (-0.5 to 0.5)); higher = stronger / more preferred TF binding; most listed sequences are background and not binding sites; conditions: protein concentration: 200 nM; construct: GST-full length
T1 sequence: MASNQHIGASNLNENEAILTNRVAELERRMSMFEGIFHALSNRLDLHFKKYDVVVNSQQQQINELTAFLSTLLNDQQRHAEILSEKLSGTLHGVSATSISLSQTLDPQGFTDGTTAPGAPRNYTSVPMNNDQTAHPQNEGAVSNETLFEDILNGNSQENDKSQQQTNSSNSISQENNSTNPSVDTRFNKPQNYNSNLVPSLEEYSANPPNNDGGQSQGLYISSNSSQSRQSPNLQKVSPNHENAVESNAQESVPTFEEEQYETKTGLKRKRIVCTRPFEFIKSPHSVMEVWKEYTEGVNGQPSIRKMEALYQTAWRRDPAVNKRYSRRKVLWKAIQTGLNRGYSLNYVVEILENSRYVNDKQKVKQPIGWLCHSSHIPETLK
Method in brief: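 The E-score, a modified Wilcoxon-Mann-Whitney statistic, was computed by the Universal PBM Analysis Suite for every ungapped eight-base word pooled with its reverse complement. Scans behind it were normalised with masliner after bound GST-tagged yeast transcription factors were detected with fluorescent anti-GST. The proteins, at about 100-200 nM, had been applied to universal all-10-mer Agilent arrays made double-stranded by primer extension.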

Sequence	PBM E-score
ACGTCCGA	-0.00037
AGCTTGCA	-0.132
AAGTTTGA	0.124
CACGAGCC	-0.145
AATCGTGT	0.133
AAGATGTC	0.252
AACGCACG	0.228
TCACACAA	0.0114
GAATCTGA	-0.0387
ACAATTTA	0.183
AATCCCGG	0.132
GGCAGCAA	-0.111
GCGAACGA	0.0301
CTTCTGCA	-0.141
ACACCCTC	-0.343
ATGCGACA	0.217
GGCCGGCC	0.0825
CTCCAGGC	-0.178
CTTGCGGC	-0.119
AGTGTTAG	0.0782
TCAGGCCA	-0.139
CCACGGCA	-0.0291
AGTCATTG	0.0331
ATACCTTA	0.0247
TAAGGCAA	-0.0333

Sequence	PBM E-score
AGATACCA	0.063
CCATGTAA	0.135
AGCGGAAA	0.0968
ACTCTCAT	-0.0427
ACAGGGAG	-0.226
GGCTGTCA	-0.197
CCGAACTC	0.093
AGTGCAGG	-0.108
ACTGAAGA	0.147
AGGGGGAG	-0.436
AGCCGTTG	0.121
CCCGGCGC	-0.206
CCGTTGCC	-0.194
ATCTGAAT	0.0826
CACCGAAA	0.116
ACCAATTG	-0.0886
ATCTGCGG	-0.0472
CTCACAGC	-0.0585
AGAACCGG	-0.0453
ATCCCCAG	-0.208
ACGCCTCC	-0.274
AAATCCTA	-0.0454
ACCCGACG	-0.0255
GCGCCTAA	0.129
ACTAACCA	-0.00287

Sequence	PBM E-score
CATAGGAG	-0.0671
AGAGATTA	0.0388
CCTCTTTC	-0.0391
CAGTTTGG	-0.196
GCGTGAGC	-0.0269
GTCCACCA	0.078
CGATATGC	0.136
GGTTCTAA	0.105
CATTACAC	0.161
CTCTAACA	0.0458
CATTCTGG	-0.152
CTGAAGGA	-0.176
AAGTGGCG	-0.0607
AGTAGTCC	0.00303
ACCACGAT	-0.00315
GCTCGTGA	-0.29
AATTCTTC	0.101
CTCTAGTA	0.0694
ATGTCGAA	0.0756
CATCCGGA	0.187
ACCCACCA	-0.231
TACACTCA	0.0265
GGGGCGGA	-0.213
AATGAATG	0.168
CCTCGGTC	-0.157

Sequence	PBM E-score
CTTAGAAC	0.184
CATTAGAG	-0.135
AGACTCAA	-0.0426
CTAAAACA	0.0605
TGTTTTAA	0.168
CGAATGGA	0.0673
ATTCCCGA	0.0205
ACGTTTAC	0.0555
AATTAAAA	0.162
CATACACA	-0.0667
AAGGTACG	-0.069
ACTTTGGG	-0.0621
GTGAATGA	0.0546
CAGACTGC	-0.058
AACCCCTA	-0.213
GCCAGCGC	-0.193
ACAATTAC	0.204
TCTAAGAA	0.266
ACTCGTAG	-0.158
AGACCGCG	-0.0273
AGAGATAG	-0.0658
GCCGGGCA	-0.169
ATACTTGA	-0.054
ACTGGTTG	-0.0344
GAAAATGC	0.0894

Sequence	PBM E-score
AGTCAGAC	0.176
ATCAACGG	0.176
AGCCGATC	-0.0201
CAGATACC	-0.0556
CCTATCAG	-0.252
AGAGCCTG	-0.0449
GCAATGCA	-0.0348
ATTTGTGC	0.093
CCACCTGG	-0.38
CGTGGTAA	-0.0664
ATGTTTCG	0.0846
ACCGCTAT	0.0288
TAAGGAGA	-0.255
CCCTTGAA	-0.0891
ATCCACCG	0.0604
GAGACTAC	-0.0763
AAGACTGA	-0.00313
CCGAAAAC	0.0665
GTACTAAC	0.0331
CATCAAGG	-0.254
CCAATTAC	-0.00963
GACCACAA	-0.152
GTCGCTGA	0.129
AATGGTAG	0.0825
ACATACAG	0.167

Sequence	PBM E-score
CTCCGTGA	0.115
ACCTACAG	-0.0496
AACCCCCC	-0.291
ATGCCCCC	-0.224
CGCAGAGC	-0.129
CTAACTGC	-0.0906
GCATCTTA	0.0374
CATCGTGC	0.145
AACCGTCG	0.0394
CCTATGCG	-0.0132
ATCCCGCA	0.00249
GTCCTTGA	0.285
AAAAGCGA	0.0705
GCTTAGGA	-0.117
ATTATAAG	0.103
CCATTACA	0.121
CGGAGCCA	-0.214
GAGGGCAC	-0.321
ACCCTTTA	0.0137
CAATATCG	0.016
ACGGCAAA	0.0443
AGCCCCCC	-0.432
GGGCACAC	-0.166
CACAGGCC	0.00035
CATTTCGA	0.15

Sequence	PBM E-score
GAGCGGGA	-0.17
TCATTGAA	0.0398
CTGGAATC	-0.151
AAATTATA	0.165
CATCTGGC	-0.0625
AACTATGC	0.0573
CTTTAACC	0.0113
AAGCCAAA	-0.0623
ACGTTGAG	-0.0298
CCGGAAGG	0.033
TAGAATAA	0.115
CATAGCCC	-0.188
ATAAACTG	0.108
CTTGGTGA	-0.182
CCTGAGTA	-0.0416
AATTAAGC	0.00396
CTGGCCGC	0.0571
CTCAGTAA	0.0439
GAATAAGA	0.0359
AGCGATGG	-0.0716
AAATGCTG	0.155
GCACGCGA	-0.00286
